# Experimental data from the supplement of paper PMC4604168 (melanoma cell lines).
# The other results are listed elsewhere or left out. Single values are uncertain, as repeats are few or missing.
# Test system: MEL-HO
# Assay: cell count relative to DMSO control; melanoma cells; higher = more viable cells
# Settings: library dose: low library concentration; 72 h
# 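Also: cell number obtained by counting DAPI-stained nuclei in high-throughput microscope images with image analysis software, screen run in 1,536-well plates.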
row,SMILES,cell count
1,"O=C(Nc1cccc(Cl)c1)Nc1ncc(CCNc2ncnc3ccsc23)s1 + Cc1cc(SCc2sc(-c3ccc(C(F)(F)F)c(F)c3)nc2C)ccc1OCC(=O)O [GW0742] (first compound 0.0008 µM, partner dose 2 µM)",102%
2,"O=C(Oc1ccc([N+](=O)[O-])cc1)N1CCC(C(O)(c2ccc3c(c2)OCO3)c2ccc3c(c2)OCO3)CC1 + Cn1cc(/C=C2\C(=O)Nc3cccnc32)c2ccccc21 [GW441756] (first compound 1 µM, partner dose 0.4 µM)",99.2%
3,"Cn1cnc2c(F)c(Nc3ccc(Br)cc3Cl)c(C(=O)NOCCO)cc21 [selumetinib] + C[As](C)SC[C@H](NC(=O)CC[C@H](N)C(=O)O)C(=O)NCC(=O)O [Darinaparsin] (first compound 0.015 µM, partner dose 0.4 µM)",93.2%
4,"CN(C)S(=O)(=O)c1ccc2c(c1)/C(=C/c1cc3c([nH]1)CCCC3)C(=O)N2 + Cc1cc(SCc2sc(-c3ccc(C(F)(F)F)c(F)c3)nc2C)ccc1OCC(=O)O [GW0742] (first compound 0.4 µM, partner dose 2 µM)",98.2%
5,"C/C(O)=C(\C#N)C(=O)Nc1cc(Br)ccc1Br + CC(C)CCN1c2nc(Nc3cc(F)c(O)c(F)c3)ncc2N(C)C(=O)C1C [BID1870] (first compound 2 µM, partner dose 0.2 µM)",79.7%
6,"Cc1cc(N2CCOCC2)cc2[nH]c(-c3c(NC[C@@H](O)c4cccc(Cl)c4)cc[nH]c3=O)nc12 + C/C(O)=C(\C#N)C(=O)Nc1cc(Br)ccc1Br [LFM-A13] (first compound 0.2 µM, partner dose 2 µM)",84.2%
7,"CN(C)S(=O)(=O)c1ccc2c(c1)/C(=C/c1cc3c([nH]1)CCCC3)C(=O)N2 + O=C(Oc1ccc([N+](=O)[O-])cc1)N1CCC(C(O)(c2ccc3c(c2)OCO3)c2ccc3c(c2)OCO3)CC1 [JZL184] (first compound 0.4 µM, partner dose 1 µM)",85.4%
8,"C/C(O)=C(\C#N)C(=O)Nc1cc(Br)ccc1Br + O=c1cc(-c2cccc3c2Sc2ccccc2S3)oc(N2CCOCC2)c1 [KU55933] (first compound 2 µM, partner dose 1 µM)",102%
9,"C/C(O)=C(\C#N)C(=O)Nc1cc(Br)ccc1Br + CCCCCCCCCCCC1=C(O)C(=O)C=C(O)C1=O [Embelin] (first compound 2 µM, partner dose 1.2 µM)",83.5%
10,"C/C(O)=C(\C#N)C(=O)Nc1cc(Br)ccc1Br + O=C(Oc1ccc([N+](=O)[O-])cc1)N1CCC(C(O)(c2ccc3c(c2)OCO3)c2ccc3c(c2)OCO3)CC1 [JZL184] (first compound 2 µM, partner dose 1 µM)",82.1%
11,"N#Cc1c(O)c2c(-c3ccc(-c4ccccc4O)cc3)csc2[nH]c1=O + O=C(Oc1ccc([N+](=O)[O-])cc1)N1CCC(C(O)(c2ccc3c(c2)OCO3)c2ccc3c(c2)OCO3)CC1 [JZL184] (first compound 2 µM, partner dose 1 µM)",87.9%
12,"Cn1nnc2c(C(N)=O)ncn2c1=O [temozolomide] + Cc1cc(SCc2sc(-c3ccc(C(F)(F)F)c(F)c3)nc2C)ccc1OCC(=O)O [GW0742] (first compound 2 µM, partner dose 2 µM)",106%
13,"NC1(c2ccc(-c3nc4ccn5c(=O)[nH]nc5c4cc3-c3ccccc3)cc2)CCC1 + C[As](C)SC[C@H](NC(=O)CC[C@H](N)C(=O)O)C(=O)NCC(=O)O [Darinaparsin] (first compound 0.4 µM, partner dose 0.4 µM)",86.9%
14,"COc1ccc(-c2ccc3c(N4CCOCC4)nc(N4C[C@@H](C)O[C@@H](C)C4)nc3n2)cc1CO + O=C(Oc1ccc([N+](=O)[O-])cc1)N1CCC(C(O)(c2ccc3c(c2)OCO3)c2ccc3c(c2)OCO3)CC1 [JZL184] (first compound 0.02 µM, partner dose 1 µM)",114%
15,"Cc1ccc(NC(=O)c2cccc(N(C)C)c2)cc1NC(=O)c1ccc(O)cc1 + O=C(Oc1ccc([N+](=O)[O-])cc1)N1CCC(C(O)(c2ccc3c(c2)OCO3)c2ccc3c(c2)OCO3)CC1 [JZL184] (first compound 2 µM, partner dose 1 µM)",88.9%
16,"Cn1sc(=O)n(Cc2ccccc2)c1=O + C[C@]12O[C@H](C[C@]1(O)CO)n1c3ccccc3c3c4c(c5c6ccccc6n2c5c31)CNC4=O [Lestaurtinib] (first compound 0.4 µM, partner dose 0.004 µM)",104%
17,"Cc1cc(SCc2sc(-c3ccc(C(F)(F)F)c(F)c3)nc2C)ccc1OCC(=O)O + Oc1cc(-c2nc(-c3ccccc3)[nH]c2-c2ccncc2)ccc1Cl [L779450] (first compound 2 µM, partner dose 0.2 µM)",94.3%
18,"O=S(=O)(c1ccccc1)N(CC(F)(F)F)c1ccc(C(O)(C(F)(F)F)C(F)(F)F)cc1 + Cc1cc(SCc2sc(-c3ccc(C(F)(F)F)c(F)c3)nc2C)ccc1OCC(=O)O [GW0742] (first compound 1.4 µM, partner dose 2 µM)",93.5%
19,"COC(=O)c1sccc1S(=O)(=O)Nc1ccc(Nc2ccccc2)cc1OC + C/C(O)=C(\C#N)C(=O)Nc1cc(Br)ccc1Br [LFM-A13] (first compound 1 µM, partner dose 2 µM)",103%
20,"Cc1ccc(Nc2nccc(N(C)c3ccc4c(C)n(C)nc4c3)n2)cc1S(N)(=O)=O [Pazopanib] + N.N.[Cl][Pt][Cl] [cisplatin] (first compound 0.4 µM, partner dose 1.6 µM)",102%
21,"COc1cc(Nc2ncc(F)c(Nc3ccc4c(n3)NC(=O)C(C)(C)O4)n2)cc(OC)c1OC [Tamatinib] + O=C(Oc1ccc([N+](=O)[O-])cc1)N1CCC(C(O)(c2ccc3c(c2)OCO3)c2ccc3c(c2)OCO3)CC1 [JZL184] (first compound 0.4 µM, partner dose 1 µM)",92.8%
